The values that follow come from the supplement of paper PMC4967469.

pIC50: −log10 of the molar value. By IC50 is meant the dose at which the fit gives 50% viability; where the fit passes the top or lowest dose, that dose stands as a limit. AUC sums up the same curve from the lowest dose to the 256-fold higher top dose; values near 1 show little effect. A top dose marked as inferred comes from the curve model; the source does not state it.

Compound in this experiment: CC1=C(C(=O)Nc2cc3cn[nH]c3cc2F)C(c2ccc(C(F)(F)F)cc2)CC(=O)N1 [GSK429286A]
Description: Viability of human cancer cell lines after 72 h of drug (GDSC screen). As to conditions: top dose inferred. As to the method: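 Human cancer cell lines in 384-well plates, medium with 10% serum, drug for 72 h over a 256-fold dose range (nine 2-fold or five 4-fold steps up to the top dose). Adherent lines were fixed and stained with the nucleic acid dye Syto60, suspension lines read with resazurin; signal relative to control wells, capped at 0 and 100%. One two-parameter sigmoid per drug and line, fitted in a mixed model over all curves with the slope shared within a line.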
In general, pIC50 refers to −log10 of the IC50, conventionally taken in molar units. In the case of “SW1271 (small cell lung carcinoma, adherent, top dose 20 µM)”, the AUC turned out to be 0.866 and the pIC50 was under 4.70.
Taken in the same sequence, the figures for “SW1417 (large intestine, adherent, top dose 20 µM)” were 0.986 and under 4.70.
On the same counts, the results for “SW1463 (large intestine, adherent, top dose 20 µM)” are 0.978 and under 4.70.
Take “SW1573 (lung adenocarcinoma, adherent, top dose 20 µM)”: the AUC amounted to 0.98 and the pIC50 was under 4.70.
As to “SW1710 (bladder, adherent, top dose 20 µM)”, the AUC was 0.28 and the pIC50 was 6.53.
With “SW1783 (glioma, adherent, top dose 20 µM)”, the AUC amounted to 0.979 and the pIC50 was under 4.70.
For “SW1990 (pancreas, adherent, top dose 20 µM)”, the AUC is 0.973 and the pIC50 was under 4.70.
“Saos-2 (osteosarcoma, adherent, top dose 20 µM)”: the AUC came out at 0.981 and the pIC50 was under 4.70.
As for SiHa (cervix, adherent, top dose 20 µM), the AUC is 0.987 and the pIC50 is under 4.70.
In the case of T47D (breast, adherent, top dose 20 µM), the AUC was 0.976 and the pIC50 was under 4.70.
Consider “T84 (large intestine, adherent, top dose 20 µM)”, for which the AUC is 0.982 and the pIC50 was under 4.70.
For T98G (glioma, adherent, top dose 20 µM), the AUC stood at 0.98 and the pIC50 is under 4.70.
As for “T-24 (bladder, adherent, top dose 20 µM)”, the AUC was found to be 0.964 and the pIC50 is under 4.70.
As for “T-T (oesophagus, adherent, top dose 20 µM)”, the AUC was determined as 0.987 and the pIC50 is under 4.70.
For the cell line “TALL-1 (T-cell lymphoblastic leukaemia, suspension, top dose 20 µM)”, the AUC was found to be 0.977 and the pIC50 was under 4.70.
As for “TC-71 (Ewing sarcoma, adherent, top dose 20 µM)”, the AUC came to 0.978 and the pIC50 is under 4.70.
Taken in the same sequence, the figures for “TCCSUP (bladder, adherent, top dose 20 µM)” were 0.981 and under 4.70.
“TE-1 (oesophagus, adherent, top dose 20 µM)”: the AUC amounted to 0.982 and the pIC50 is under 4.70.
Take “TE-4 (oesophagus, adherent, top dose 20 µM)”: the AUC came out at 0.98 and the pIC50 was under 4.70.
For “TE-5 (oesophagus, adherent, top dose 20 µM)”, the AUC was found to be 0.981 and the pIC50 was under 4.70.
Turning to “TE-6 (oesophagus, adherent, top dose 20 µM)”, the AUC worked out at 0.986 and the pIC50 is under 4.70.
In the case of “TE-8 (oesophagus, adherent, top dose 20 µM)”, the AUC was found to be 0.977 and the pIC50 was under 4.70.
On the same counts, the results for “TE-9 (oesophagus, adherent, top dose 20 µM)” are 0.986 and under 4.70.
Taken in the same sequence, the figures for “TE-10 (oesophagus, adherent, top dose 20 µM)” were 0.981 and under 4.70.
“TE-11 (oesophagus, adherent, top dose 20 µM)”: the AUC came to 0.988 and the pIC50 is under 4.70.
“TE-12 (oesophagus, suspension, top dose 20 µM)”: the AUC worked out at 0.976 and the negative logarithm of the IC50 (pIC50) is under 4.70.
Turning to “TE-15 (oesophagus, suspension, top dose 20 µM)”, the AUC was determined as 0.975 and the pIC50 was under 4.70.
Regarding “TE-441-T (rhabdomyosarcoma, adherent, top dose 20 µM)”, the AUC was determined as 0.984 and the pIC50 is under 4.70.
In the case of “TGBC1TKB (biliary tract, adherent, top dose 20 µM)”, the AUC was 0.986 and the pIC50 was under 4.70.
Taken in the same sequence, the figures for “TGBC11TKB (stomach, adherent, top dose 20 µM)” were 0.986 and under 4.70.
Taken in the same sequence, the figures for “TGBC24TKB (biliary tract, adherent, top dose 20 µM)” were 0.978 and under 4.70.
For “TGW (neuroblastoma, adherent, top dose 20 µM)”, the AUC was 0.903 and the pIC50 was 4.70.
For the cell line “THP-1 (acute myeloid leukaemia, suspension, top dose 20 µM)”, the AUC came out at 0.95 and the pIC50 is under 4.70.
As to TK10 (kidney, adherent, top dose 20 µM), the AUC was 0.979 and the pIC50 is under 4.70.
Consider “TK (B-cell lymphoma, suspension, top dose 20 µM)”, for which the AUC is 0.962 and the pIC50 is under 4.70.
Turning to “TMK-1 (stomach, adherent, top dose 20 µM)”, the AUC amounted to 0.986 and the pIC50 is under 4.70.
As for “TOV-21G (ovary, adherent, top dose 20 µM)”, the AUC worked out at 0.981 and the pIC50 is under 4.70.
Take “TOV-112D (ovary, adherent, top dose 20 µM)”: the AUC was 0.968 and the pIC50 was under 4.70.
As for “TT2609-C02 (thyroid, adherent, top dose 20 µM)”, the AUC was 0.911 and the pIC50 was under 4.70.
Take TT (thyroid, adherent, top dose 20 µM): the AUC stood at 0.983 and the pIC50 was under 4.70.
Regarding “TUR (B-cell lymphoma, suspension, top dose 20 µM)”, the AUC was 0.967 and the pIC50 was under 4.70.
As for “TYK-nu (ovary, adherent, top dose 20 µM)”, the AUC came to 0.984 and the pIC50 was under 4.70.
Take U031 (kidney, adherent, top dose 20 µM): the AUC is 0.85 and the pIC50 is 4.80.
Regarding U251 (glioma, adherent, top dose 20 µM), the AUC was 0.975 and the pIC50 was under 4.70.
On to “U-2-OS (osteosarcoma, adherent, top dose 20 µM)”, for which the AUC worked out at 0.986 and the pIC50 is under 4.70.
“U-87-MG (glioma, adherent, top dose 20 µM)”: the AUC was determined as 0.981 and the pIC50 is under 4.70.
In the case of “U-118-MG (glioma, adherent, top dose 20 µM)”, the AUC was determined as 0.986 and the pIC50 is under 4.70.
Turning to “U-698-M (B-cell leukaemia, suspension, top dose 20 µM)”, the AUC stood at 0.987 and the pIC50 was under 4.70.
In the case of “UACC-62 (melanoma, adherent, top dose 20 µM)”, the AUC worked out at 0.986 and the pIC50 was under 4.70.
For the cell line “UACC-257 (melanoma, adherent, top dose 20 µM)”, the AUC was determined as 0.98 and the pIC50 is under 4.70.
Taken in the same sequence, the figures for “UACC-812 (breast, adherent, top dose 20 µM)” were 0.991 and under 4.70.
